Source: PubChem BioAssay AID434955 (Southern Research Specialized Biocontainment Screening …, 2010)
This is one part of the list. Shown are side measurements of this screen, not its main read-out; they come without a call. Compounds called inactive in the main read-out are mostly missing here.

test: beta-lactam sensitization of Mtb H37Rv, H37Rv (AID 434955);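 note: growth measured after seven days incubation then overnight dye step; 0% = bacteria only wells and 100% = bacteria with antibiotic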; conditions: M. tuberculosis H37Rv growth with meropenem, percent inhibition; measured here: primary screen without meropenem; at 25 µM

SMILES | inhibition [%]
Cc1nn2c(=O)cc(COC(=O)c3ccc(NC(=O)C(C)(C)C)cc3)nc2s1 | 0.55
COc1cc(CN2CCc3ccc(NC(=O)CCc4ccccc4OC)cc3C2)ccc1O | 1.88
Cn1c(=O)[nH]c(=O)c2c1nc(Br)n2CCCCSc1nc2ccccc2o1 | -10
O=C(Nc1ccnn1C1CCN(Cc2ccc(O)c(Cl)c2)CC1)C1CCCC1 | 1.52
CC(=O)Nc1ccc(C(=O)NC(C)c2ccc(-n3ccnc3)cc2)cc1 (configuration not stated) | -1.32
CC(C)(C)c1ccc(OCC(=O)N/N=C/c2cc(Br)ccc2OC(=O)c2ccco2)cc1 | 2.71
O=C(CSc1nnc(CNC(=O)c2ccccc2)o1)c1ccccc1 | 5.12
CCOC(=O)c1cn(CC(=O)Nc2ccc(CC)cc2)nn1 | 3.31
Clc1ccc(Cl)c2sc(N3CCCC3)nc12 | 7.83
Nc1nc(NCCc2ccccc2)nc(NCc2ccccc2)c1[N+](=O)[O-] | 3.69
CN1CCN(c2oc(-c3ccccc3F)nc2S(=O)(=O)c2ccc(Cl)cc2)CC1 | 18.2
Cc1c(NC(=O)Nc2ccccc2)cccc1[N+](=O)[O-] | -7.43
COc1cccc(N2C(=O)CC(N3CCC(C(N)=O)(N4CCCCC4)CC3)C2=O)c1 (configuration not stated) | -11.2
Cc1ccc(C)c(N2CCN(CC3CC=CCC3)CC2)c1 (configuration not stated) | -2.1
O=C(NC(=S)Nc1ccc(Cl)cc1Cl)C1CC1 | 14.3
COCCn1c(COc2cccc(OC)c2)nnc1SCC(=O)N1CCOCC1 | -3.74
S=C(Nc1ccc(Cl)cc1)c1nc2ccccc2s1 | 40.5
O=C(COC(=O)Cc1ccc(S(=O)(=O)N2CCCCC2)s1)Nc1ccc2c(c1)OCO2 | 32.2
CC1CCC(NC(=O)CCS(=O)(=O)c2ccc3c(c2)CCN3C(=O)C2CC2)CC1 (configuration not stated) | -2.67
CC(=O)c1ccc(OCCCC(=O)Nc2cc(Cl)ccc2-n2cncn2)cc1 | 4.54
Cc1ccc(CSc2nnc(-c3ccncc3)n2CC2CCCO2)cc1 (configuration not stated) | 1.32
CCCOc1ccc(-c2nnn(CC(=O)OCC)n2)cc1 | 96.5
CCc1ccc(-c2nc(CN3CCC(C(=O)NCCc4ccc(OC)c(OC)c4)CC3)c(C)o2)cc1 | 98.1

SMILES | inhibition [%]
Cc1ccc(CN2CCCCC2C(=O)Nc2ccc(Oc3cccnc3)cc2)o1 (configuration not stated) | -1.87
COC(=O)c1ccc(COc2ncnc3c(Cl)cc(Cl)cc23)o1 | -5.9
C/C(=N\NC(=O)c1cccc(Cl)c1)c1cccc(NC(=O)C(C)C)c1 | -2.79
CC(=O)Nc1ccc(C(=O)NCC2(N3CCCCC3)CCCCC2)cc1 | -11.9
CCC(C)c1ccccc1OCCn1ccnc1 (configuration not stated) | 8.01
CC(Oc1ccccc1F)C(=O)NC1CCS(=O)(=O)C1 (configuration not stated) | -3.29
CC(=O)[C@@H]1[C@@H]2C(=O)N(c3ccc(F)c(Cl)c3)C(=O)[C@@H]2C2c3ccccc3C=CN21 (some centres not stated) | -1.71
COc1ccc(S(=O)(=O)NCCC(=O)NCc2ccc(F)cc2)cc1 | -8.27
CC(C)(C)C(=O)Nc1ccnn1C1CCN(C(=O)c2ccc(Cl)cc2F)CC1 | -1
O=C(NCc1ccc(Cl)cc1)c1ccc(CNc2c(N3CCOCC3)c(=O)c2=O)cc1 | 11
O=C(Cc1ccc(S(=O)(=O)N2CCOCC2)s1)Nc1ccccc1N1CCCC1 | -3.3
O=C(Nc1ccc2c(c1)oc1ccccc12)c1ccncc1 | -0.56
CCc1cccc(NC(=O)Cn2cc3c(n2)CCCC3)c1 | -6.49
C=CCNC(=O)C1CC(=O)N(c2ccc(OCC(=O)Nc3ccc(OC)cc3)cc2)C1 (configuration not stated) | 0.39
Cc1ccc2c(CN3CCCCC3C)cc(=O)oc2c1 (configuration not stated) | -1.56
CCOC(=O)CNC(=O)CSP(=S)(OCC)OCC | -0.02
COC(=O)c1nc(NC(=S)NC(=O)c2cccs2)sc1C | -1.39
Cc1cc(NC(=O)c2ccc3c(c2)C(=O)N(c2cccc(C)c2C)C3=O)no1 | 2.26
O=C(Nc1ccccc1F)c1ccc2snnc2c1 | -9.26
O=[N+]([O-])c1ccc(Nc2nc(N/N=C/c3cccc(F)c3)nc(N3CCCC3)n2)cc1 | 45.7
COc1ccc(-c2c(-c3ccsc3)oc(=O)c3cc(OC)c(OC)cc23)cc1 | 73.6
COc1cccc(C2CC(c3ccc(F)cc3)Nc3nc(N)nn32)c1 (configuration not stated) | -6.39
NC(=O)CC(NC(=O)Cc1ccc(Br)cc1)c1ccc(NC2CCCCCC2)c([N+](=O)[O-])c1 (configuration not stated) | 16.5

SMILES | inhibition [%]
O=C1CCCN1CCCNc1ccc(S(=O)(=O)N2CCCCC2)cn1 | -8.75
O=C(N1CCOCC1)N1CCCC(c2nc(-c3cccs3)no2)C1 (configuration not stated) | 1.75
CN1CCN(C(=O)N2CCNC2=O)CC1 | -3.9
COc1ccc(OCc2cc(C(=O)NCc3cccc(C)n3)no2)c(Cl)c1 | -0.45
COc1ccccc1NS(=O)(=O)c1cccc(N2CC(O)=C(c3ccccc3)C2=N)c1 | -7.17
CNC(=O)C1CCN(S(=O)(=O)c2c(C)noc2/C=C/c2cccc(OC)c2)CC1 | -7.94
COc1ccc2oc(C(=O)OCC(=O)N3C(C)CCCC3C)c(C)c2c1 (configuration not stated) | -4.54
COc1cc2[nH]c(=O)n(Cc3ccc(C(=O)NCCCN4CCC(C)CC4)cc3)c(=O)c2cc1OC | -2.74
Cc1noc(C)c1CSc1nnc2scc(-c3ccc(Cl)cc3)n12 | -2.71
CCOC(=O)CSc1nnc(CNC(=O)c2cccs2)n1CCc1ccccc1 | 46.3
CC1=Nc2ccccc2/C1=C\c1nc(-c2ccc(F)cc2)oc1O | 40.5
CCn1ccnc1CN1CCCCC1C(=O)Nc1ccc(Oc2cccnc2)cc1 (configuration not stated) | 13.6
CCOc1cccc(/C=N/NC(=O)c2ccc3c(c2)OCCO3)c1O | 2.81
CN(C)C=Nc1ccc2nc3c(cc2c1)[nH]c1ccccc13 | 6.83
Cn1c(/C=N/c2nc3ccccc3[nH]2)nc2ccccc21 | 43.9
COc1ccccc1-c1cc(C(=O)Nc2c(C)n(C)n(-c3ccccc3)c2=O)no1 | 22
Cc1[nH]c(C)c(S(=O)(=O)NCc2ccc(OC(C)C)cc2)c1C(=O)N1CCCC1 | -0.16
O=[N+]([O-])c1ccc(N2CCN(S(=O)(=O)c3ccc(Cl)cc3)CC2)cc1NCC1CCCO1 (configuration not stated) | 1.97
Cc1cccc(N2CCN(C(=O)C(C)n3nc(C)n4c(cc5occc54)c3=O)CC2)c1C (configuration not stated) | 45.2
Cc1c(NC(=S)NC(=O)c2cccc3ccccc23)cccc1C(=O)O | -6.39
Cc1ccc2c(c1)N(CC(=O)NCCCN1CC(C)CC(C)C1)C(=O)c1cccnc1O2 (configuration not stated) | -15.7
